From patent US20230226146A1 (published 2023)

What was measured:
[1] = target: T1, activin A (UniProt P08476 311-426); assay: Biacore SPR
T1 chain: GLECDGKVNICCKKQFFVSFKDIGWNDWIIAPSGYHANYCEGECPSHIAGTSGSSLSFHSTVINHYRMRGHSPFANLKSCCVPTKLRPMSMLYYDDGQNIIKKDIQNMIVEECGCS

[2] = target: T2, GDF11 (UniProt O95390 299-407); assay: Biacore SPR
T2 chain: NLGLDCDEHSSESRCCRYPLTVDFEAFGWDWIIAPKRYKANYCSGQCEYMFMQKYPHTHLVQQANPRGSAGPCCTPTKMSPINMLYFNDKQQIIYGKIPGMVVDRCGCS

B1: ActRIIA-hFc (Fc fusion)
chain: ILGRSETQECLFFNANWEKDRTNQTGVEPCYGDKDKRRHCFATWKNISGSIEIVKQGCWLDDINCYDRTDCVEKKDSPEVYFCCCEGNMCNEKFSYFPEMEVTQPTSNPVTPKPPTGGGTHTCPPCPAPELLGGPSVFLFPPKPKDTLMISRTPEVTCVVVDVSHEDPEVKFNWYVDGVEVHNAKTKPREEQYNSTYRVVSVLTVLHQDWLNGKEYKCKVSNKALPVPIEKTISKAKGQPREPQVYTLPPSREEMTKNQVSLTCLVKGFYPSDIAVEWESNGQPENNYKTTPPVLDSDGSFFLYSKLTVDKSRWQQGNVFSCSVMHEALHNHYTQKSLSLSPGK
B1 gave a Kd [1] of 0.005 nM and a Kd [2] of 9.96 nM.
